# Read counts are not given, so values of variants with three or more changes are uncertain.
# B1: LINE1-mini (parent)
# chain: GGCAGAGCUCAACACAGCGUGGCAAAGUGGCUGUGGCUAGACUGCC
# Variants of: B1
# Experiment: self-cleavage, relative activity (ratio to wild type); higher = more cleavage; in vitro, sequencing; the parent is a self-cleaving ribozyme
row,Variant,self-cleavage
1,GGCUAAGCUCAACACAGCGUGGCAAUGUGGCUUUGGGUAGAUUGCC,0.01
2,GGCUGAGCUUAACACAGCGUGGCAAAAUGGCUGUGGCUGGACUGUC,0.08
3,GGCUGAGCUCAACAAAGCGUGACAAAGUGGCUGUGGCUAGACUGCC,0.14
4,GGCUGAGCUCAAGACAGCGUGGCAAAGUGGCUGUGGCGAGACUGCC,0.04
5,GGCUGAGCUCAACAGAGCGUGGCAAAGUGGCUGUGGCUAGUCUGCC,0.01
6,GGCUGAGCUCAACAGAGCGUGGCAAAGUGCCUGUGGCUAGACUGCC,0.02
7,GGCUGAGCUCAACACAGAGUGGCAAAGUGGAUGUGGCUACACUGCC,0.08
8,GGCUGAGCUCAACACAGCGUGGCAAAGUGGCUGUGGAUAGACUGUC,0.06
9,GGCUGAGCUCAAAACAGGGUGGCAAAGUGGCUGUGGCUAGACUGCC,0.06
10,GGCUGAGCUCAACACAGCGUGGCAAAGUGGAUUUGGCUACACUGCC,0.08
11,GGCUGAGCUCAACAGAGCGUGGCAAAGUGGCUGUGGCUUGACCGCC,0.02
12,GGCUGAGCUCAACACAGCGUGGCAAAGUGGCUGUGGCUAGACUGUU,0.35
13,GGCUGAGCUCAACAGAACGUGGCAAAGUGGCUGUGGCUAGACUACC,0.02
14,GGCUGAGCUCAACACAGAGUAGCAUAGUGGCUGUGGCUAGACUGCC,0.11
15,GGCUGAGUUCAACACAGUGUGGCAAAGUGGCUGUGGCUAGACUGCC,0.57
16,GGCUGAGCUCAACACAGCGUGGUCAAGUGGCUGUGGCUAGACUGCU,0.28
17,GGCUGAGUUCAACACAGCGUGGCAAAGUGGCUCUGGCUAGCCUGCC,0.01
18,GGCUGAGCUCAACAUAGCGUGGCAAAGUGGCUGUGGCUAGACUACC,0.06
19,GGCUGAGCUCAACACAGCGUGGCAAAGUGGGUGUGGCUAGACUGUC,0.03

row,Variant,self-cleavage
1,GGCUAAGCUCAACACAUAGUGGCAAAGUGGCUGUGGCUAGACUGCC,0.03
2,GGCUGAGCUCAACAAAGCGUUGCAAAGUGGCUGUGACUAUCCUGCC,0.03
3,GGCUGAGCUCAACACAGGGUGGCAAAGUCGCUGUGGCUAGACUCCC,0.14
4,GGCUGAGCUAAACACCGCGUGGCAAAGUGGCUGUGGCUAGACUGUC,0.04
5,GGCUGAGCUCAAAACAGCGUGGCAAAGUUUCUGUGGUUAGAUUGCC,0.12
6,GGCUGAGCUAAACACAUCAUGGCAAAGUGGCUGUGGCUAGACUGCC,0.02
7,GGCUGAGCUAAACACAGCGUGGCAAAGUGGCUGUGGCUCGACCGCC,0.02
8,GGCUGAGCUCAACAUAGCGUGGCAAAGUGGUUGUGGCUAGACUGCC,0.04
9,GGCUAAGCUCAACACAGUGUGGCGAAGUGGCUUUGGCUAGACUGCC,0.06
10,GGCUGAGCUCAACACAGCGUGGCAAAGUGGAUGUGGCUAGACUGCU,0.05
11,GGCUGAGCUCAACACAGAGUGGCAAAAUGGCUGUGGCUAGACUGCC,0.16
12,GGCUGAGCUAAACACAGCGUGGCAAAGUGUCCGUGGCUAGAAUGCC,0.02
13,GGCUGAGCUCAACACAGCGUGGCAAAGUGGUUGUGGCAAGACUGCC,0.02
14,GGCUGAGCUUAACACAGCGUGGCAAAGUGGCUGAGGCUAGACUGCC,0.1
15,GGCUCAGAUUAACACAGCGUGGCAGAGUGGCUGUGGCUCGAGUGCC,0.14
16,GGCUGAGCUCAAUACAGCGUGGCAAACUGGCUAUGGCUAGACUGCC,0.15
17,GGCUGAGCUCAACACAGUGUGGCAAAAUGGCUGUUGCUAGACUGCC,0.09
18,GGCUGAGCUCAACAUUGCCUGGCAAAGUGGCUGUGGCUAGACUGCC,0.14
19,GGCUGAGCUCAACACAGAGUGGCAAAGUGGCUGUCGUUAGACUGCC,0.03

row,Variant,self-cleavage
1,GGCUGAGCUCAACACAGAGAAGCAAAGUGGCUGUGGCUAGACUGCC,0.58
2,GGCUGAGUUCAACACAGCGCGGCAAAGUGGCUGUGGCUAGUCUGCC,0.09
3,GGCUAAGUUCAACACAGCGUGGCAGAGUGGCUAUGGCUAGACUGCC,0.33
4,GGCUGAGCUGAACACAGCGUGGCAAAGUGGCUGUGGCUAGACUUCC,0.02
5,GGCUGAGCUAACCACAGCGUGGCAAAGAGGCUGUGGCUAGACUGCC,0.03
6,GGCUGAGCUAAACACAGCGUGGGAAAGUGGCUGUGGCUUGACUGCC,0.04
7,GGCUGAGCUCAAAACAGCGUGGCAAAGUGGCUGUGUCUAGACUGCC,0.15
8,GGCUGAGCUCAACACAGCGUGGGAAAGUGGCCGUGGCUAGACUGCC,0.05
9,GGCUGAGCUCAACACAGUGUGGUAAAGUGGCUGUGGCUAGACUGCC,0.17
10,GGCUGAGCUCAACAGAGAGUGGCAAAGUGGCUGUGGCUAAACUGCC,0.03
11,GGCUGAGCUAAACACAGCGUGGCAAAGUCGCUGUGGCUAGACUGCC,0.01
12,GGCUGAGCUCAAGACAGCAUGUUAUAGUGACUGUGGCUUGACUGCC,0.03
13,GGCUGAGCUCAAGACAGCGUGGCAAAGUGGCUGUGGCUAGACUUUC,0.04
14,GGCUGAGCUCAACACAGCGUGGCAAAGUGGCUGUGGUUAGACUGGC,0.01
15,GGCUGAGCUAAACACAGCGUGGCAAAGUGGCUGCGGCUAGACUGCC,0.06
16,GGCUGAGCUCAACACAGAGUGGCAAAGUAGCUGUGGCUAGACUGCC,0.05
17,GGCUAAGCUCAACACAGAGUGGCAAAGUGGCUGUGGCUAGACUGCC,0.12
18,GGCUGAGCUCAACAGAGUGUGGCGAAGUGUCUGUGGCUAGACUGCC,0

# Reference: the RNAGym collection of RNA variant scans (doi:10.7554/elife.90254)
